# Data published in the supplement of paper PMC4604168 (melanoma cell lines).
# The list shows a part of the results. Most values come without repeats; read them as rough.
# Tested on: UACC62
# Assay: cell count relative to DMSO control; melanoma cells; higher = more viable cells
# Conditions: library dose: standard library concentration; 72 h
# 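Note: cells treated in 1,536-well plates, then fixed and DAPI-stained, with nuclei counted from automated high-throughput microscope images.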
row,SMILES,cell count
1,"C[As](C)SC[C@H](NC(=O)CC[C@H](N)C(=O)O)C(=O)NCC(=O)O [Darinaparsin] + COc1cc2ncnc(Nc3ccc(Oc4ccccc4)cc3)c2cc1OC [SrcI1] (first compound 2 µM, partner dose 10 µM)",81.9%
2,"N.N.[Cl][Pt][Cl] [cisplatin] + C=CCNC1=C2C[C@@H](C)C[C@H](OC)[C@H](O)[C@@H](C)/C=C(\C)[C@H](OC(N)=O)[C@@H](OC)/C=C\C=C(/C)C(=O)NC(=CC1=O)C2=O [Tanespimycin] (first compound 8 µM, partner dose 0.01 µM)",56.9%
3,"C[C@]12O[C@H](C[C@]1(O)CO)n1c3ccccc3c3c4c(c5c6ccccc6n2c5c31)CNC4=O [Lestaurtinib] + Cn1c(Nc2ccc(C(F)(F)F)cc2)nc2cc(Oc3ccnc(-c4ncc(C(F)(F)F)[nH]4)c3)ccc21 [CHIR265] (first compound 0.02 µM, partner dose 0.4 µM)",53.6%

# Tested on: WM115
# Assay: as above
# Conditions: library dose: standard library concentration; 72 h
row,SMILES,cell count
1,"C[C@]12O[C@H](C[C@]1(O)CO)n1c3ccccc3c3c4c(c5c6ccccc6n2c5c31)CNC4=O [Lestaurtinib] + O=C(Nc1cccc(Cl)c1)Nc1ncc(CCNc2ncnc3ccsc23)s1 [SNS314] (first compound 0.02 µM, partner dose 0.004 µM)",46.6%
2,"N.N.[Cl][Pt][Cl] [cisplatin] + CO[C@H]1C[C@@H]2CC[C@@H](C)[C@@](O)(O2)C(=O)C(=O)N2CCCC[C@H]2C(=O)O[C@H]([C@H](C)C[C@@H]2CC[C@@H](OCCO)[C@H](OC)C2)CC(=O)[C@H](C)/C=C(\C)[C@@H](O)[C@@H](OC)C(=O)[C@H](C)C[C@H](C)/C=C/C=C/C=C/1C [everolimus] (first compound 8 µM, partner dose 0.1 µM)",75.8%
3,"C[C@]12O[C@H](C[C@]1(O)CO)n1c3ccccc3c3c4c(c5c6ccccc6n2c5c31)CNC4=O [Lestaurtinib] + NC(=O)Nc1cc(-c2cccc(F)c2)sc1C(=O)N[C@H]1CCCNC1 [AZD7762] (first compound 0.02 µM, partner dose 0.1 µM)",56.3%
4,"C[As](C)SC[C@H](NC(=O)CC[C@H](N)C(=O)O)C(=O)NCC(=O)O [Darinaparsin] + Oc1nc(-c2ccc(C(F)(F)F)cc2)nc2c1CSCC2 [XAV939] (first compound 2 µM, partner dose 10 µM)",95.1%
5,"C[As](C)SC[C@H](NC(=O)CC[C@H](N)C(=O)O)C(=O)NCC(=O)O [Darinaparsin] + COc1ccc2c(c1)CCC1C2CCC2(C)C(NCCCCCCN3C(=O)C=CC3=O)CCC12 [U73122] (first compound 2 µM, partner dose 2 µM)",72.2%
6,"C[C@]12O[C@H](C[C@]1(O)CO)n1c3ccccc3c3c4c(c5c6ccccc6n2c5c31)CNC4=O [Lestaurtinib] + O=C(O)c1ccc(-c2c[nH]c3ncc(-c4ccccc4)cc23)cc1C1CCCC1 [GSK650394] (first compound 0.02 µM, partner dose 0.8 µM)",70.6%
7,"Cn1cc(C2=C(c3cn(C4CCN(Cc5ccccn5)CC4)c4ccccc34)C(=O)NC2=O)c2ccccc21 [Enzastaurin] + C=C(c1ccc(C(=O)O)cc1)c1cc2c(cc1C)C(C)(C)CCC2(C)C [Bexarotene] (first compound 4 µM, partner dose 10 µM)",99%
8,"N.N.[Cl][Pt][Cl] [cisplatin] + CO[C@@H]1[C@H](N(C)C(=O)c2ccccc2)C[C@H]2O[C@]1(C)n1c3ccccc3c3c4c(c5c6ccccc6n2c5c31)C(=O)NC4 [Midostaurin] (first compound 8 µM, partner dose 0.4 µM)",55.6%
9,"Cn1cc(C2=C(c3cn(C4CCN(Cc5ccccn5)CC4)c4ccccc34)C(=O)NC2=O)c2ccccc21 [Enzastaurin] + CNC(=O)c1cc(Oc2ccc(NC(=O)Nc3ccc(Cl)c(C(F)(F)F)c3)cc2)ccn1 [sorafenib] (first compound 4 µM, partner dose 2 µM)",92.6%
10,"Cn1cc(C2=C(c3cn(C4CCN(Cc5ccccn5)CC4)c4ccccc34)C(=O)NC2=O)c2ccccc21 [Enzastaurin] + CC(C)C[C@H](NC(=O)[C@H](Cc1ccccc1)NC(=O)c1cnccn1)B(O)O [Bortezomib] (first compound 4 µM, partner dose 0.005 µM)",17.4%
11,"Cn1cc(C2=C(c3cn(C4CCN(Cc5ccccn5)CC4)c4ccccc34)C(=O)NC2=O)c2ccccc21 [Enzastaurin] + Cc1cc(Nc2cc(N3CCN(C)CC3)nc(/C=C/c3ccccc3)n2)n[nH]1 [ENMD2076] (first compound 4 µM, partner dose 0.2 µM)",72.4%
12,"C[As](C)SC[C@H](NC(=O)CC[C@H](N)C(=O)O)C(=O)NCC(=O)O [Darinaparsin] + Cn1cc(/C=C2\C(=O)Nc3cccnc32)c2ccccc21 [GW441756] (first compound 2 µM, partner dose 2 µM)",77.3%
13,"C[As](C)SC[C@H](NC(=O)CC[C@H](N)C(=O)O)C(=O)NCC(=O)O [Darinaparsin] + CC(C)(C)c1cnc(CSc2cnc(NC(=O)C3CCNCC3)s2)o1 [SNS-032] (first compound 2 µM, partner dose 0.05 µM)",41.8%
14,"N.N.[Cl][Pt][Cl] [cisplatin] + CS(=O)(=O)CCNCc1ccc(-c2ccc3ncnc(Nc4ccc(OCc5cccc(F)c5)c(Cl)c4)c3c2)o1 [lapatinib] (first compound 8 µM, partner dose 4 µM)",101%
15,"C[C@]12O[C@H](C[C@]1(O)CO)n1c3ccccc3c3c4c(c5c6ccccc6n2c5c31)CNC4=O [Lestaurtinib] + C[C@]1(c2nc3c(C(N)=O)cccc3[nH]2)CCCN1 [Veliparib] (first compound 0.02 µM, partner dose 7 µM)",70.6%
16,"Cn1cc(C2=C(c3cn(C4CCN(Cc5ccccn5)CC4)c4ccccc34)C(=O)NC2=O)c2ccccc21 [Enzastaurin] + CN1CCN(c2ccc3nc(-c4c(N)c5c(F)cccc5[nH]c4=O)[nH]c3c2)CC1 [Dovitinib] (first compound 4 µM, partner dose 0.5 µM)",82.3%
17,"Cn1cc(C2=C(c3cn(C4CCN(Cc5ccccn5)CC4)c4ccccc34)C(=O)NC2=O)c2ccccc21 [Enzastaurin] + C[C@@H](Oc1cc(-c2cnn(C3CCNCC3)c2)cnc1N)c1c(Cl)ccc(F)c1Cl [Crizotinib] (first compound 4 µM, partner dose 1 µM)",49.9%
18,"C[As](C)SC[C@H](NC(=O)CC[C@H](N)C(=O)O)C(=O)NCC(=O)O [Darinaparsin] + Cc1cc(SCc2sc(-c3ccc(C(F)(F)F)c(F)c3)nc2C)ccc1OCC(=O)O [GW0742] (first compound 2 µM, partner dose 10 µM)",94.3%
19,"C[C@]12O[C@H](C[C@]1(O)CO)n1c3ccccc3c3c4c(c5c6ccccc6n2c5c31)CNC4=O [Lestaurtinib] + O=C(O)c1ccc2c(c1)nc(Nc1cccc(Cl)c1)c1ccncc12 [CX4945] (first compound 0.02 µM, partner dose 2 µM)",68.5%
20,"N.N.[Cl][Pt][Cl] [cisplatin] + Clc1ccc(Nc2nnc(Cc3ccncc3)c3ccccc23)cc1 [vatalanib] (first compound 8 µM, partner dose 10 µM)",87.6%
21,"Cn1cc(C2=C(c3cn(C4CCN(Cc5ccccn5)CC4)c4ccccc34)C(=O)NC2=O)c2ccccc21 [Enzastaurin] + COc1cc(Nc2ncc(F)c(Nc3ccc4c(n3)NC(=O)C(C)(C)O4)n2)cc(OC)c1OC [Tamatinib] (first compound 4 µM, partner dose 2 µM)",66%
22,"N.N.[Cl][Pt][Cl] [cisplatin] + COc1cc(Nc2ncc(F)c(Nc3ccc4c(n3)NC(=O)C(C)(C)O4)n2)cc(OC)c1OC [Tamatinib] (first compound 8 µM, partner dose 2 µM)",65.5%
23,"C[C@]12O[C@H](C[C@]1(O)CO)n1c3ccccc3c3c4c(c5c6ccccc6n2c5c31)CNC4=O [Lestaurtinib] + Nc1ncn([C@H]2C[C@H](O)[C@@H](CO)O2)c(=O)n1 [decitabine] (first compound 0.02 µM, partner dose 0.5 µM)",70.9%
24,"C[As](C)SC[C@H](NC(=O)CC[C@H](N)C(=O)O)C(=O)NCC(=O)O [Darinaparsin] + CCc1ccc(CCOc2ccc(CC3SC(=O)NC3=O)cc2)nc1 [pioglitazone] (first compound 2 µM, partner dose 10 µM)",78.3%
25,"C[As](C)SC[C@H](NC(=O)CC[C@H](N)C(=O)O)C(=O)NCC(=O)O [Darinaparsin] + O=C1NC(=O)/C(=C/c2ccc(-c3ccc(F)cc3O)o2)S1 [AS252424] (first compound 2 µM, partner dose 5 µM)",80.4%
26,"C[C@]12O[C@H](C[C@]1(O)CO)n1c3ccccc3c3c4c(c5c6ccccc6n2c5c31)CNC4=O [Lestaurtinib] + COc1ccc(Cl)c(Nc2nc3ccccc3nc2NS(=O)(=O)c2cccc(NC(=O)C(C)(C)N)c2)c1 [XL147] (first compound 0.02 µM, partner dose 4 µM)",76.9%
27,"Cn1cc(C2=C(c3cn(C4CCN(Cc5ccccn5)CC4)c4ccccc34)C(=O)NC2=O)c2ccccc21 [Enzastaurin] + OCc1c[nH]c2ccccc12 [Indole-3-carbinol] (first compound 4 µM, partner dose 4 µM)",114%
